Data as given in the supplement of paper PMC4604168 (melanoma cell lines).
The list shows a part of the results. Single values are uncertain, as repeats are few or missing.

tested on: G361; experiment: cell count relative to DMSO control; melanoma cells; higher = more viable cells; details: library dose: low library concentration; 72 h
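Further: cell number obtained by counting DAPI-stained nuclei in high-throughput microscope images with image analysis software, screen run in 1,536-well plates.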

Row | SMILES | cell count
1 | CS(=O)(=O)CCNCc1ccc(-c2ccc3ncnc(Nc4ccc(OCc5cccc(F)c5)c(Cl)c4)c3c2)o1 [lapatinib] + Oc1cc(-c2nc(-c3ccccc3)[nH]c2-c2ccncc2)ccc1Cl [L779450] (first compound 0.8 µM, partner dose 0.2 µM) | 93.4%
2 | CN1CCN(c2ccc3nc(-c4c(N)c5c(F)cccc5[nH]c4=O)[nH]c3c2)CC1 [Dovitinib] + O=C(O)C(=O)Nc1sc2c(c1C(=O)O)CCNC2 [TCS401] (first compound 0.1 µM, partner dose 1.66667 µM) | 88.6%
3 | C=CCNC1=C2C[C@@H](C)C[C@H](OC)[C@H](O)[C@@H](C)/C=C(\C)[C@H](OC(N)=O)[C@@H](OC)/C=C\C=C(/C)C(=O)NC(=CC1=O)C2=O [Tanespimycin] + COc1ccc(COc2ccc(Cc3cnc(N)nc3N)cc2OC)cc1 [GW2580] (first compound 0.002 µM, partner dose 1 µM) | 98.5%
4 | CNC(=O)c1cc(Oc2ccc(NC(=O)Nc3ccc(Cl)c(C(F)(F)F)c3)cc2)ccn1 [sorafenib] + COc1ccc(-c2ccc3c(N4CCOCC4)nc(N4C[C@@H](C)O[C@@H](C)C4)nc3n2)cc1CO [KU0063794] (first compound 0.4 µM, partner dose 0.02 µM) | 118%
5 | CNC(=O)c1cc(Oc2ccc(NC(=O)Nc3ccc(Cl)c(C(F)(F)F)c3)cc2)ccn1 [sorafenib] + COc1ccc2c(c1)CCC1C2CCC2(C)C(NCCCCCCN3C(=O)C=CC3=O)CCC12 [U73122] (first compound 0.4 µM, partner dose 0.4 µM) | 99.5%
6 | C[C@@H](Oc1cc(-c2cnn(C3CCNCC3)c2)cnc1N)c1c(Cl)ccc(F)c1Cl [Crizotinib] + O=c1cc(-c2cccc3c2Sc2ccccc2S3)oc(N2CCOCC2)c1 [KU55933] (first compound 0.2 µM, partner dose 1 µM) | 107%
7 | C[C@@H](Oc1cc(-c2cnn(C3CCNCC3)c2)cnc1N)c1c(Cl)ccc(F)c1Cl [Crizotinib] + COC(=O)c1sccc1S(=O)(=O)Nc1ccc(Nc2ccccc2)cc1OC [GSK0660] (first compound 0.2 µM, partner dose 1 µM) | 92.7%
8 | CS(=O)(=O)CCNCc1ccc(-c2ccc3ncnc(Nc4ccc(OCc5cccc(F)c5)c(Cl)c4)c3c2)o1 [lapatinib] + O=C(O)C(=O)Nc1sc2c(c1C(=O)O)CCNC2 [TCS401] (first compound 0.8 µM, partner dose 1.66667 µM) | 97.5%
